Screen size: about 340,000 compounds; about 6,900 (2%) were called active. Cut-off read from the data, not from the text of the source: active = inhibition above about 30%; inactive = below that, where a call was filed. The list shows a part of the results, in another mix than the full data. The source gives no active or inactive call for entries shown without one.
These compounds were tested against D(2) dopamine receptor (Homo sapiens) (UniProt P14416) (assay: HTS Assay for Allosteric Antagonists of the Human D2 Dopamine Receptor: Primary Screen for Antagonists). Conditions: HEK293 TREx D2 cells, calcium flux, dopamine EC80; at 10 µM; stronger effect = higher value.
Summary of the method: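 In this primary screen, negative modulation is detected by tracking calcium flux after an EC80 dopamine challenge in inducible HEK293 T-REx D2 cells preexposed to test compound for 180 s.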
Note: 0% is about no effect.

UniProt P14416, sequence (P14416 whole entry, looked up): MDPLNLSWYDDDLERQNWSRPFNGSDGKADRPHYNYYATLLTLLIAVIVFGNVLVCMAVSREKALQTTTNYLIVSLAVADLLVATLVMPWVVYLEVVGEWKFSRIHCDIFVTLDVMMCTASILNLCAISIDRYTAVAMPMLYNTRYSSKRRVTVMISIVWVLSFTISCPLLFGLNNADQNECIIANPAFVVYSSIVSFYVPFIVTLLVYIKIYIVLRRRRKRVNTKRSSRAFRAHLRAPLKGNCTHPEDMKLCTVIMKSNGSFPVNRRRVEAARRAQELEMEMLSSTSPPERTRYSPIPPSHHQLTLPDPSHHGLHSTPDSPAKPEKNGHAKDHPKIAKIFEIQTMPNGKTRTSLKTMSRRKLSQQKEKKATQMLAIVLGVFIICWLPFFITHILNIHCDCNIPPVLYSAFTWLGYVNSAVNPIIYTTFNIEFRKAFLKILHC

SMILES	inhibition
CCCCNC(=O)CCc1c(C)nc2c(c(C)nn2-c2ccccc2)c1C	5.56%
Cc1ccc(NC(=O)C2CCCN2S(=O)(=O)c2cccc3cccnc23)cc1C (centres undefined)	-4.69%
CC(C)C(=O)OCc1cc(=O)n2nc(C3CCCCC3)sc2n1	2.49%
COCCNc1ncnc2c1c(-c1ccccc1)cn2-c1cccc(Cl)c1	-4.05%
CCc1ccc(NCc2cc3cc4c(cc3n(CC(=O)Nc3ccc(F)cc3)c2=O)OCCO4)cc1	-26.5%
COc1ccc(CNC(=O)C2CCN(S(=O)(=O)c3cccc4nonc34)CC2)cc1OC	3.59%
O=C1CC(c2ccc(Cl)cc2)N=C(NC(=O)c2ccccc2)N1 (centres undefined)	-3.4%
Cc1ccc(NC(=O)Cn2c(=O)ccc3cc(S(=O)(=O)N4CCC(C)CC4)ccc32)cc1Cl	-9.3%
Cc1ccc(C)c(NC(=O)c2cc(=O)c3cc(C)cc(C)c3o2)c1	-9.05%
COc1cccc(NC(=O)CCNC(=O)Cn2ccc3ccccc3c2=O)c1	2.41%
O=C(CSc1ccccc1)Nc1cc(Cl)ccc1Oc1ccccc1	active: 41.8%
O=C(c1ccc2c(=O)n(CCc3ccccc3)c(=O)[nH]c2c1)N1CCN(c2ccc(Cl)cc2)CC1	-4.5%
CCn1c(C)c(C)c2cc(C(=O)NCCc3ccc(C)cc3)ccc21	26.4%
O=C(Nc1ccc2nn(-c3ccccc3)nc2c1)c1ccc(-c2cccc(Cl)c2)o1	-2.95%
CCOc1ccc(C(=O)N2CCN(Cc3cc(=O)n4nc(-c5ccccc5Cl)sc4n3)CC2)cc1	-0.837%
O=C(CSc1nnc(CNC(=O)c2c(F)cccc2Cl)o1)Nc1cccc(F)c1	7.78%
CCOc1ccc(NS(=O)(=O)c2ccc(NC(=O)N3CCCC3)cc2)cc1	-3.28%
CC(C)=CCN1CCN(CCC2=C(C)CCCC2(C)C)CC1CCO (centres undefined)	active: 60.9%
COCCCNC(=O)CCc1c(C)nc2cc(-c3ccc(Cl)cc3)nn2c1C	21.4%
CC(C)Cn1c(/C=C/c2ccc(F)cc2)nc2ccccc21	9%
O=C(c1cccs1)N1CCCc2cc(NS(=O)(=O)c3ccc(F)cc3)ccc21	11%
COc1ccccc1NC(=O)C1=C(C)Nc2nc(SCc3cc(C)ccc3C)nn2C1c1ccccc1 (centres undefined)	17.1%
CCOC(=O)c1c(C)[nH]c(CCC(=O)Nc2ccccc2C(=O)OC)c1C	-5.09%
CC(C)C(=O)Nc1ccc2nc(SCCOc3ccccc3)sc2c1	1.03%
CCOc1ccc(CN2CCCC(CO)(Cc3ccccc3F)C2)cc1 (centres undefined)	active: 66.8%

SMILES	inhibition
CCn1c(=O)n(CC)c2cc(N3CCCCC3)c(NC(=O)Nc3cc(Cl)ccc3OC)cc21	9.14%
Cc1ccccc1-c1cc(C(=O)N/N=C/c2cccnc2)c2ccccc2n1	active: 32.5%
COc1ccc(-n2c(-c3ccco3)nc3c(cnn3-c3ccc(C)cc3)c2=O)cc1	-8.38%
CCCCOCc1cc(CN2CCN(c3cccc(Cl)c3)CC2)c(O)c2ncccc12	0.485%
COc1ccc(CCNC(=O)CCS(=O)(=O)c2ccc3c(c2)oc(=O)n3C)cc1OC	-1.35%
Cc1ccc(N2CCN(C(=O)c3cn(C)c4ccc(S(=O)(=O)N(C)C5CCCCC5)cc4c3=O)CC2C)cc1 (centres undefined)	-6.77%
Cc1nn2c(-c3cccc(NC(=O)c4ccc(Cl)cc4)c3)nnc2c2ccccc12	10.1%
CCN1CCC(N(Cc2ccc3c(c2)OCO3)C(=O)Nc2ccc(Br)c(C)c2)CC1	7.76%
CCS(=O)(=O)N1CCc2cc(C(=O)Nc3cc(Cl)ccc3C)ccc21	26.2%
COc1cc(C2CC(=O)Nc3c2c(=O)nc2c(C)cccn32)cc(OC)c1OC (centres undefined)	-1.78%
Cc1ccc(NC(=O)CSc2nncs2)cc1Cl	active: 47.8%
CCN(CCCNC(=O)c1cc2cc3ccc(OC)cc3nc2s1)c1ccccc1	11.2%
Cc1ccc(NC(=O)C(Cc2ccccc2)NS(=O)(=O)c2cccc3nsnc23)c(C)c1 (centres undefined)	-1.22%
Cc1cccc(CNC(=O)c2ccc(Cn3c(=O)c4cccn4c4cccnc43)cc2)c1	10.4%
COc1cccc(Nc2nc(-c3ccccc3)c3cc(C)ccc3n2)c1	3.35%
COc1ccc(-c2cc3ccccc3n2CC(O)CN2CCC(C)CC2)cc1 (centres undefined)	active: 81.3%
O=C1c2oc3ccccc3c(=O)c2C(c2cccc(O)c2)N1c1ccccn1 (centres undefined)	active: 30.8%
O=C(CC1N=C2c3ccccc3N=C(SCc3ccccc3F)N2C1=O)NCc1cccs1 (centres undefined)	-16.3%
CCCNS(=O)(=O)c1ccc(OCC(=O)NCCCOC)cc1	active: 30.2%
CCCOc1ccc(C(=O)Nc2c(C(=O)c3ccc(C)cc3)oc3ccccc23)cc1	-5.98%
COc1ccc(CNC(=O)Cn2c(=O)oc3cc(S(=O)(=O)N4CCCC4)ccc32)cc1	-2.25%
Cc1cccc(S(=O)(=O)c2cn(Cc3ccccc3)c3cc(N4CCCCC4C)c(F)cc3c2=O)c1 (centres undefined)	-8.94%
CCCCc1ccc(C(=O)N/C(=C\c2ccc(C)cc2)C(=O)NC2CCCCC2)cc1	-12.6%
Cc1ccc(Cl)cc1N1CCN(C(=O)c2ccc(C)c(-n3c(C)nc4cccnc43)c2)CC1	-0.734%

Source: PubChem BioAssay AID485344 (National Center for Advancing Translational Sciences (NCATS), 2010)
